# Reference: article PMC6919601, “Identification of Plasmodium dipeptidyl aminopeptidase allosteric inhibitors by high throughput screening” (PLoS ONE, 2019)
# In all, about 110,000 compounds went through this assay and about 230 (0.21%) showed an effect of 50% or more. The list shows a part of the results.
# Biological target: DPAP1 (Plasmodium falciparum, UniProt Q8IIJ9)
# Test: primary screen, percent inhibition; read by cleavage of a fluorogenic dipeptide substrate; higher = more effect of the substance
# Design: species or system P. falciparum D10 trophozoite lysates; single well
# 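Also: 30 min substrate incubation versus DMSO and 10 µM JCP410 controls.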
# Sequence of DPAP1 (Q8IIJ9 whole entry, looked up): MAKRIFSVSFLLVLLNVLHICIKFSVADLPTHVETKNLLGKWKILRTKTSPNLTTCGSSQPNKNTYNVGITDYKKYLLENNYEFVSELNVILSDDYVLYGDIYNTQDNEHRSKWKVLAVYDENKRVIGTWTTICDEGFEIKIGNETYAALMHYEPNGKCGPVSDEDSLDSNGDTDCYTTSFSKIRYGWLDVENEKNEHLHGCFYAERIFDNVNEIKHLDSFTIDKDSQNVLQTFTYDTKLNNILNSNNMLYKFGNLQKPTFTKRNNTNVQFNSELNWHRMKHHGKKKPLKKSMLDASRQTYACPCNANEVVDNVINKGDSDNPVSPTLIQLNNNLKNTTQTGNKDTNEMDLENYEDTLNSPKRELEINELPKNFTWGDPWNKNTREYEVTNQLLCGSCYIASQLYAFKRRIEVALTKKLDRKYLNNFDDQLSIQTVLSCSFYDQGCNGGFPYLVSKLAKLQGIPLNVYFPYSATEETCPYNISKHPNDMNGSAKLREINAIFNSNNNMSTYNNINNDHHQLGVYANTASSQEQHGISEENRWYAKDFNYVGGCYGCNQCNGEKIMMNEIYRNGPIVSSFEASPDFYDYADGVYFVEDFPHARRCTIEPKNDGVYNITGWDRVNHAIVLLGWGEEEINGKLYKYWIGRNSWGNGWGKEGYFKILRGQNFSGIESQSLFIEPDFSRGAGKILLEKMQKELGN
row,Structure (SMILES),% Inhibition @ 10 uM [%]
1,O=C(c1cc2nc(-c3cccs3)cc(C(F)(F)F)n2n1)N1CCOCC1,-1.5
2,N#CCNC(=O)C(CCSc1ccccc1)NC(=O)c1ccccc1 (stereo not drawn),-0.214
3,CSc1nnc(-c2ccccc2)c(-c2ccccc2)n1,-3.77
4,N#C/C(=C\c1cccnc1)c1nc2ccccc2s1,1.08
5,COc1cc(OC)cc(C(=O)N2CCN(Cc3cccc(Br)c3)CC2)c1,-8.58
6,COc1cc(OC)c(OC)cc1CN1CCN(Cc2cccc(Cl)c2)CC1,-3.92
7,Cc1ccc(S(=O)(=O)N2CCC(C(=O)NCCCO)CC2)cc1,-3.74
8,Brc1ccc(CN2CCSCC2)o1,-1.07
9,CC(Oc1ccc2c3c(c(=O)oc2c1)CCC3)C(=O)c1ccccc1 (stereo not drawn),-1.26
10,CCO/C(O)=C1/C(C)=NC2=C(C(=O)CCC2)C1c1ccc(Cl)cc1 (stereo not drawn),-1.78
11,CC1=C(C(=O)Nc2ncccc2C)C(c2ccc(F)cc2)C2=C(O)CCCC2=N1 (stereo not drawn),1.43
12,O=C1C(/C=N/Cc2cccs2)=C(O)c2ccccc21,-0.467
13,N#CCNC(=O)[C@H](C[C@H]1CC[C@H](O)CC1)NC(=O)c1ccccc1,1.35
14,Cc1ccc2c(c1)-c1c(cnn1CC(=O)NCc1ccc3c(c1)OCO3)CO2,-2.67
15,Cc1ccc(C(=O)Nc2cccc(C#N)c2)cc1Br,0.727
16,CC(C)C[C@H](NC(=O)N1CCc2ccccc2C1)C(=O)NCC#N,-6.98
17,Cc1ccc(C2CC(=O)N3CN(C(C)c4ccccc4)CSC3=C2C#N)cc1 (stereo not drawn),10.6
18,CCNc1nc(NCC)n2c(SCC(=O)c3ccc(OC)cc3F)nnc2n1,-2.63
19,COc1ccc(N2C(=O)C3CC=CCC3(C)C2=O)cc1 (stereo not drawn),-0.512
20,CC1CCCN(c2nc3c(S(=O)(=O)c4ccccc4)nnn3c3ccc(Cl)cc23)C1 (stereo not drawn),-1.37
21,O=S(=O)(c1ccc(-c2csc(Nc3ccc(F)cc3)n2)cc1)N1CCCC1,-2
22,COC(=O)c1cc(-c2ccc(C)cc2)[nH]n1,-3.21
23,COc1ccccc1N(CC(=O)Nc1cccc(Br)c1)S(=O)(=O)c1ccc(C)cc1,2.95
24,O=C(ON1C(=O)CCC1=O)c1ccccc1,18
25,COC1=CC(=O)C=C(OC)C12CC(C)(C)N=C2SC,-5.3
26,O=C(c1ccco1)N1CCN(c2nc3ccc(Cl)cc3n3cnnc23)CC1,-0.522

row,Structure (SMILES),% Inhibition @ 10 uM [%]
1,CC1=C(C(=O)NCCCN2CCOCC2)C2(CCN(Cc3ccccc3)CC2)OC1=O,5.8
2,O=C(CSc1nc2ccccc2[nH]1)NCc1ccco1,1.42
3,CCn1ncc(CNC(=O)c2cnn3c(C(F)F)cc(-c4ccc(C)cc4)nc23)c1C,0.778
4,Cc1ccc(CNC(=O)C2CCCN(c3ncnc4c3nc3n4CCCCC3)C2)cc1 (stereo not drawn),6.14
5,CC(C)CCNC(=O)CN1Cc2ccccc2C1=O,4.36
6,CC1(NC(=S)N2CCCCC2)CCS(=O)(=O)C1 (stereo not drawn),-2.65
7,Cc1c(C(=O)N2CCCCC2c2cccnc2)sc2nc3n(c(=O)c12)CCCCC3 (stereo not drawn),2.07
8,O=[N+]([O-])c1ccc(S(=O)(=O)Nc2ccc(Br)cc2)cc1,-4.61
9,O=C(c1ccco1)N1CCN(CCOc2ccc(F)cc2)CC1,2.25
10,Nc1nc2nonc2nc1N,-4.27
11,Cc1cc(Cl)ccc1OC(C)C(=O)N1CCN(c2ccccc2)CC1 (stereo not drawn),-1.79
12,Cc1ccc(Cl)cc1-n1nnc(-c2nc(-c3cccnc3)no2)c1N,1.66
13,CC(C)n1c(-c2cccs2)nc2ccccc21,-0.551
14,O=C(Nc1ccc2c(c1)OCO2)c1nn2c(C(F)(F)F)cc(-c3cccs3)nc2c1Cl,-3.44
15,COc1cccc2c1cc1c(=O)n(CC(=O)NC3CCCc4ccccc43)nc(C)n12 (stereo not drawn),1.68
16,COc1ccc(/C=C2\SC(=O)N(Cc3ccc(F)cc3)C2=O)cc1O,15.9
17,COc1ccc(NC(=O)CSc2nc3c(cc2C#N)CCCCC3)cc1,2.85
18,O=C(CN1C(=O)CSc2ncccc21)N1CCOCC1,-2.37
19,COc1ccc(C(=O)Nc2ccc(Cl)cc2C(=O)Nc2ccncc2)cc1,-3.87
20,Cc1ccc(C(=O)Nc2sc3c(c2C(=O)N2CCN(C)CC2)CCC(C)C3)cc1 (stereo not drawn),-0.171
21,COc1ccc(C2=N/C(=C\c3ccccc3F)C(=O)O2)c(Cl)c1,3.42
22,Cc1onc(-c2ccccc2Cl)c1C(=O)NCC(=O)O,6.11
23,O=C(O)c1nccnc1C(=O)Nc1ccc(Cl)c(Cl)c1,-2.18
24,COc1cccc(C2=NS(=O)(=O)N(C)C(C(=O)N3CC4(C)CC3CC(C)(C)C4)=C2)c1 (stereo not drawn),-1.06
25,CN1CCN(C(=O)CSc2nc3ccc(NC(=O)c4ccccc4Cl)cc3s2)CC1,-3.16
26,CC(C)CS(=O)(=O)C1=NSC2=NC(=O)/C(=C\c3ccc(Br)o3)C(=N)N21,-1.58

row,Structure (SMILES),% Inhibition @ 10 uM [%]
1,Cc1c(Br)c(-c2nnc(S)n2Cc2ccco2)nn1C,-2.9
2,O=C(NCCN1CCOCC1)Nc1cnc2ccccn2c1=O,3.66
3,C=CCN1C(=O)/C(=C\c2c(C)[nH]c3ccccc23)C(=O)NC1=S,-0.712
4,Cc1cc(C)cc(Oc2coc3cc(O)ccc3c2=O)c1,-3.19
5,Cc1ccn2c(=O)c(C(=O)NCCC(c3ccccc3)c3ccccc3)cnc2c1,-1.66
6,O=C(Nc1cnn(Cc2ccc(F)cc2)c1)C1c2ccccc2Oc2ccccc21,3.94
7,NC(=O)C1CCCN(Cc2ccco2)C1 (stereo not drawn),1.88
8,Cc1ccnc(NC(=O)c2ccc(C(C)(C)C)cc2)c1,1.34
9,CC1=C(C(=O)NC2CCCCC2C)C2(CCC(C)CC2)OC1=O (stereo not drawn),-1.89
10,COC(=O)c1c(-c2ccc(Br)cc2)csc1N,4.98
11,Cn1c(C(=O)NCCOc2ccccc2Cl)cc(=O)n(C)c1=O,1.11
12,O=C1c2ccccc2-c2nc3ncnn3c(-c3ccccc3Cl)c21,1.01
13,COC(=O)c1cc(=O)n(Cc2ccccc2)/c(=N/Cc2ccccc2)s1,-7.13
14,Cc1cc(C)c2c(=O)n(CC(=O)NC(C)c3ccccc3)sc2n1 (stereo not drawn),3.59
15,O=C(NCC1CCCO1)NC1(C(F)(F)F)Oc2ccc(Cl)cc2O1 (stereo not drawn),-7.83
16,COc1ccccc1C1C(C#N)=C(N)OC2=C1C(=O)CC(C)(C)C2 (stereo not drawn),-1.59
17,Cc1ccc2[nH]c(CCc3nc4cc(C)ccc4[nH]3)nc2c1,-6.71
18,Nc1nonc1-c1nnnn1CC(=O)N1CCOCC1,14.6
19,CCOP(=O)(c1ccccc1)C(O)c1ccc(F)cc1 (stereo not drawn),0.408
20,O=C(c1ccccc1)c1cc(F)c(N2CCCCC2)cc1Cl,2.65
21,O=C(Cc1cccc2ccccc12)Nc1ccccc1C(=O)Nc1ccccc1,4.25
22,COc1cccc(N(CC(=O)NCC(C)C)S(=O)(=O)c2ccc(C)cc2)c1,-12
23,COc1ccc(C2=N/C(=C\C(C)=C\c3ccccc3)C(=O)O2)cc1OC,0.0932
24,Nc1nc(N)nc(-c2ccc(Br)cc2)n1,3
25,CC(=O)c1ccc(NC(=O)CSC(C)C)cc1,-4.91
26,CCC(C)NC(=O)Cn1c(=O)c2cccn2c2cccnc21 (stereo not drawn),-6.96

row,Structure (SMILES),% Inhibition @ 10 uM [%]
1,Cc1ccc2ncnc(N(CC(C)C)CC(C)C)c2c1,-3.06
2,COCCN1C(=O)c2oc3ccccc3c(=O)c2C1c1ccc(C(=O)OC)cc1 (stereo not drawn),-2.91
3,Cc1noc2ncnc(NCCC3=CCCCC3)c12,-2.34
4,CCOC(=O)N1CCN(C(=O)C2CC(c3cc(OC)ccc3OC)=NO2)CC1 (stereo not drawn),4.41
5,COc1ccc(OC)c2c(C)cc(N[C@H]3CC[C@H](O)CC3)nc12,-0.13
6,COc1ccc(N(CC(=O)Nc2cccc(C)c2)S(=O)(=O)c2ccc(NC(C)=O)cc2)cc1,-6.77
7,O=C(NC1CCCC1)c1ccc(CNc2c(N3CCCCC3)c(=O)c2=O)cc1,-0.0309
8,CC(C)C(=O)NCCc1nc2ccccc2n1CCCOc1ccc(Cl)cc1,3.24
9,O=C(CCSc1nc2ccccc2n1S(=O)(=O)c1ccccc1)N1CCCCC1,-2.19
10,COC(=O)c1sc(N2C(=O)c3oc4ccccc4c(=O)c3C2c2ccc(C(C)C)cc2)nc1C (stereo not drawn),-0.828
11,COc1cc(C(=O)NCc2ccc3c(c2)OCO3)cc(OC)c1OC,-9.26
12,COc1cc(C2Nc3ccccc3N=C3CC(C)(C)CC(O)=C32)ccc1O (stereo not drawn),-2.07
13,CCc1ccc(-c2cc(C(=O)N(CC)Cc3ccccc3)n[nH]2)cc1,-3.31
14,COc1ccc(CNC(=O)CNC2=NC(=O)C(c3ccccc3)(c3ccccc3)N2)cc1,0.324
15,c1cc(CNC2CCCCC2)n(-c2nnc(N3CCCC3)s2)c1,-9.4
16,CCCC(C)C1C(C#N)=C(N)OC2=C1C(=O)CCC2 (stereo not drawn),0.777
17,C=CCc1cc(/C=C2\SC(=O)N(C)C2=O)cc(OCC)c1OC,5.37
18,O=C(Nc1ccc(N2CCN(C(=O)c3cccs3)CC2)cc1)c1ccccc1Cl,2.84
19,CCc1ccc(CNCCCCO)cc1,6.69
20,COc1ccc(-c2ccccc2)cc1N1C(=O)c2ccc(F)cc2C1=O,1.35
21,CCOc1ccc(OCc2ccc(C(=O)N3N=C(C(F)F)CC3(O)C(F)F)cc2)cc1 (stereo not drawn),0.389
22,CC1(C)CN=C(N2CCNCC2)S1,1.44
23,CC(C)CCNC(=O)c1cc(O)nc2ccc(S(=O)(=O)N3CCOCC3)cc12,3.27
24,CC(C)C[C@H](NC(=O)c1ccccc1OC(F)F)C(=O)NCC#N,3.19
